The supplement of paper PMC3334620
The full ranking holds about 33,000 sequences; the median of “E-score (-0.5 to 0.5)” is about -0.016, and the highest 2% start at about 0.31. The list shows a part of the results.

Each sequence was assayed against Cst6 (UniProt P40535) (assay: PBM E-score (8-mer binding enrichment) (E-score (-0.5 to 0.5)); higher = stronger / more preferred TF binding; most listed sequences are background and not binding sites). Settings: protein concentration: 200 nM; construct: GST-DNA-binding domain.
Method in brief: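 For each ungapped eight-base word taken together with its reverse complement, the Universal PBM Analysis Suite assigned an E-score. Binding data came from GST-tagged yeast transcription factors, applied at about 100-200 nM, on universal all-10-mer Agilent arrays made double-stranded by primer extension. Fluorescent anti-GST marked bound protein, and scans were normalised with masliner.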

| Sequence | PBM E-score |
| --- | --- |
| CTAGCAGA | -0.0311 |
| AATCAAGG | -0.00856 |
| CTGAGGGA | -0.12 |
| GCAGTTTA | 0.00275 |
| GTACGCAA | 0.0898 |
| AGGAGGTG | -0.141 |
| ACAAGCTG | -0.00948 |
| CGAGATCC | -0.0304 |
| CACCTAAA | -0.0665 |
| AAGCAGTA | -0.152 |
| CATGGTCA | 0.225 |
| GCGTAGCC | -0.276 |
| ATCGAGAA | 0.0467 |
| AGAAAGGG | 0.0377 |
| GGCTAATA | 0.0847 |
| CAAGCGCG | -0.0487 |
| GTCTTCTA | 0.0601 |
| CGCTTTGC | 0.0492 |
| AGGCGCAT | 0.0355 |
| AGTCACGG | 0.0365 |
| CTAATTCC | -0.0103 |
| CACACGCC | -0.0267 |
| ACCATGCA | -0.0485 |
| CAATCATG | 0.179 |
| GATTCGCA | -0.0144 |

| Sequence | PBM E-score |
| --- | --- |
| CAATCATC | 0.152 |
| GCGAGACA | -0.17 |
| AGTTCTGG | -0.0687 |
| ACCGCCAT | -0.0159 |
| AAGCCCAC | -0.177 |
| CTTCGCCA | -0.106 |
| ACGTCCCG | -0.179 |
| GATTACCC | 0.0267 |
| GATAGGCC | -0.294 |
| CAAAATCG | 0.0996 |
| GACCCGAA | -0.206 |
| CCTAAGGC | -0.109 |
| CTGGCAGC | -0.208 |
| ACGCGTCC | -0.129 |
| AGCATTTA | -0.0114 |
| AGACTTGC | -0.243 |
| CGGATCCC | -0.314 |
| ACAATGGC | -0.0317 |
| GTACTGAA | 0.171 |
| CTGGCCGA | -0.244 |
| TCGTTAGA | -0.194 |
| CTGTTGGC | -0.263 |
| ATGCGGAG | -0.204 |
| AGTTCTAT | -0.0843 |
| ACAACATG | 0.152 |

| Sequence | PBM E-score |
| --- | --- |
| ACGAGTGA | 0.01 |
| ACACCTAT | 0.0251 |
| TGTTAGAA | 0.061 |
| GTAACTTA | 0.214 |
| GGTTTCAC | 0.051 |
| GGCTGGGA | -0.208 |
| GCCTCTCA | -0.231 |
| CATCCCGA | -0.083 |
| GTATAAAA | 0.254 |
| CCCAGGCA | -0.318 |
| AGACGTAC | -0.0375 |
| AACCTCTC | -0.228 |
| AACGGCCG | 0.065 |
| CGATACTC | -0.0389 |
| CCGTGAGG | -0.0986 |
| CACGCAAC | 0.264 |
| AACACCTA | -0.0667 |
| ACGGTCAC | 0.152 |
| CCCATGCC | -0.205 |
| CAGCAGCC | -0.128 |
| CGTACCAC | 0.0284 |
| GCTACCCC | -0.34 |
| CAGAAGGG | -0.191 |
| GACACACA | 0.146 |
| ATCCGCCC | -0.317 |

| Sequence | PBM E-score |
| --- | --- |
| ACGCCACG | 0.0785 |
| CCGCCAGA | -0.078 |
| CGCGCGAC | 0.0579 |
| TCCGAACA | -0.0581 |
| AAAGGGGA | -0.291 |
| ACACTGTG | 0.0104 |
| ACACGCAC | -0.0949 |
| AGTGACCA | -0.105 |
| GGCGCGAA | 0.107 |
| GTGAACAC | 0.00153 |
| ATATATTA | 0.336 |
| TCTTAGCA | -0.0175 |
| AGTAAGTG | 0.0876 |
| ACGAATCG | 0.148 |
| CGGTTGCA | -0.0979 |
| CGGAGCCG | 0.077 |
| GATACAGA | 0.0801 |
| AGCGAACG | -0.215 |
| ATTTCGCC | 0.125 |
| CGTTTCTA | 0.0884 |
| ATCATGAG | 0.146 |
| GATACCTA | 0.0533 |
| AGCTACAC | -0.0312 |
| CGGCTGAC | -0.0468 |
| CTTCTCGC | -0.00321 |

| Sequence | PBM E-score |
| --- | --- |
| TACTAGCA | -0.0555 |
| AGTGTTTG | 0.0763 |
| TCCAGTAA | -0.259 |
| CCCACGAA | -0.129 |
| CTTAGGAC | -0.103 |
| CGCCGTGC | 0.344 |
| ACATTTAG | -0.0508 |
| TCGATCGA | 0.135 |
| AATCCTGG | -0.113 |
| GCTCGCGA | -0.109 |
| GATAGGTA | -0.00617 |
| AAACCCTT | -0.0827 |
| GATATCTA | 0.0454 |
| CATCGCCA | 0.0609 |
| ACGATGTC | 0.0231 |
| AGCGTTAT | -0.0472 |
| CCAAGATA | -0.0457 |
| AACTGGCC | -0.148 |
| CATGCCAG | -0.0651 |
| GTTCTCTA | 0.0871 |
| CGCTTAGA | -0.248 |
| GAAGGTGC | -0.268 |
| CACGCCTG | -0.102 |
| AAGTACCG | -0.0946 |
| CTGAACGA | 0.00235 |

| Sequence | PBM E-score |
| --- | --- |
| ATGCCGTA | 0.372 |
| CGCATTGC | 0.16 |
| CGGATCAC | 0.16 |
| GCCTTACA | 0.0413 |
| AGACAGCC | -0.3 |
| TATACGGA | 0.00453 |
| CCCTTTAA | -0.0558 |
| AAGTTCTC | -0.0938 |
| AGTAAGCG | -0.0624 |
| CCACCGTC | -0.201 |
| TATGCTAA | 0.0861 |
| CCATCCGC | 0.0484 |
| AAGTTTGT | 0.0881 |
| AACCGATC | -0.0645 |
| GTCACATA | 0.245 |
| CATCTCAC | 0.0124 |
| CTCTCTCA | -0.111 |
| CACACACC | 0.00235 |
| CTCCGGCC | -0.298 |
| AAGGATTG | 0.0586 |
| ACATCGTG | 0.0167 |
| AGCACCAA | -0.0932 |
| AAGGGAAT | 0.112 |
| ACTGACAC | -0.121 |
| ATTCCACC | 0.0657 |

| Sequence | PBM E-score |
| --- | --- |
| GAGCCGAA | -0.00213 |
| CCTCAAGG | -0.153 |
| TGGCGTAA | 0.294 |
| CAAGGCAG | -0.119 |
| AGGCGTGA | 0.0189 |
| ATGCAGGC | -0.123 |
| CGATCCAC | -0.131 |
| AAAGAGGC | -0.169 |
| TACAGCCA | -0.0845 |
| TTCCACAA | 0.0661 |
| CGTAATAA | 0.325 |
| ACGAGGAC | -0.177 |
| CGCACTAA | -0.0243 |
| CGTATCGC | -0.00089 |
| ATCGAAGA | 0.116 |
| GCCCCCAC | -0.394 |
| CTCCTCTC | -0.371 |
| CACGCGTG | -0.00323 |
| CCGATCAG | -0.0851 |
| TACCCAGA | -0.12 |
| CGTAGTTA | 0.138 |
| ATCGGGAA | -0.0762 |
